Measured values reported in PubChem BioAssay AID1240 (Sanford-Burnham Center for Chemical Genomics, 2008).
The campaign covered roughly 50,000 compounds. About 800 (1.6%) showed an effect of 50% or more. This is one part of the list.

What follows are compounds tested against Bcl-2-like protein 10 (Homo sapiens) (UniProt Q9HD36) (assay: TR3 peptide-Bcl-B binding displacers, biochemical primary FP assay, phenotype converters (AID 1240;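 further: 0% = Bcl-B with tracer peptide and DMSO and 100% = tracer peptide lacking Bcl-B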)). Settings: GST-Bcl-B / FITC-TR3 peptide fluorescence polarization; stronger effect = higher value; compound at 3.75 mg/L.
Chain of UniProt Q9HD36 (Q9HD36 whole entry, looked up): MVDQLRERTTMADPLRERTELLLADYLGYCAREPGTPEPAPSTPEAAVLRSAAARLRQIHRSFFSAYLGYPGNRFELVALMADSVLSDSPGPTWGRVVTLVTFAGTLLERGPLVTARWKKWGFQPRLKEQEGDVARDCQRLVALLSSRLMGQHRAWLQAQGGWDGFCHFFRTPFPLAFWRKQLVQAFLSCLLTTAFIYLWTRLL

SMILES | displacement
CC1CCCN(c2c([N+](=O)[O-])c(=O)oc3ccccc23)C1 (stereo not drawn) | 14.7%
Nc1nc2nonc2nc1Nc1ccccc1 | 4.9%
O=C(NN1CCOCC1)c1ccc(-c2ccccc2)cc1 | 5.1%
Cc1ccccc1OCC(=O)Nc1ccc(Nc2ccccc2)cc1 | 1.1%
CCOC(=O)c1ccc(NC(=O)c2ccc([N+](=O)[O-])cc2Cl)cc1 | -10%
Cc1ccc(C(O)(C(=O)N=c2ccccn2O)c2ccc(C)cc2)cc1 | -31.7%
O=C(Nc1ccccn1)c1cc(-c2ccccc2)nc2ccccc12 | -2.3%
Cc1ccc(OCC(=O)Nc2ccc(Cl)c(Cl)c2)c(Br)c1 | 10.6%
c1csc(-c2csc(-c3nc(-c4cccs4)cs3)n2)c1 | -6.1%
CC1=NN(c2ccc(C(=O)O)cc2)C(=O)/C1=C\c1ccco1 | -8.7%
O=C(COc1ccccc1)NC1CCCCCCC1 | -6.5%
Cc1onc(-c2c(F)cccc2Cl)c1C(=O)N(C)C1CCS(=O)(=O)C1 (stereo not drawn) | 0.5%
O=C(NNC(=S)Nc1ccccc1)c1cc(-c2ccccc2)nc2ccccc12 | -20.9%
Cn1c(COc2ccc(Cl)cc2)n[nH]c1=S | -12.6%
Cc1cccc(CC2S/C(=N/N=C/c3ccco3)N(c3ccccc3)C2=O)c1 (stereo not drawn) | 11.1%
NC(=O)c1ccccc1NC(=O)c1cccc(F)c1 | -2.1%
Cc1c(-c2ccccc2)[n+](=O)c2c(n1[O-])CCCCC2 | -4.1%
O=C(O)CCC(=O)Nc1ccc(NC(=O)c2ccccc2)c(Cl)c1 | -5.2%
CCc1cc2c(=O)c(-c3nc4ccccc4s3)coc2c(CN(C)C)c1O | -15%
O=C(CCN1C(=O)c2ccccc2C1=O)Nc1ccccc1C(=O)N1CCCC1 | 7.8%
CCN(CC)C(=O)CSc1nc(O)cc(=O)[nH]1 | 2.5%
CC(C)CCNC(=O)c1ccccc1[N+](=O)[O-] | 10.9%

SMILES | displacement
Cc1ccc(NC2=NC3(CCCC3)N=C(N)N2)c(C)c1 | -7.7%
CCOc1ccc(N2C(=O)C3ON(c4ccccc4)C(c4ccc(SC)cc4)C3C2=O)cc1 (stereo not drawn) | 12.4%
O=C(Nc1cccc(C(F)(F)F)c1)c1ccc([N+](=O)[O-])o1 | -7.7%
O=S(=O)(Nc1ccc(-c2nc3ccccc3s2)c(O)c1)c1ccccc1 | -3.2%
CCN(CC)c1ccc(/C=C2\C(=O)NC(=O)N(C)C2=O)cc1 | 0.5%
COc1ccccc1N1CCN(/N=C/c2ccc(Cl)c([N+](=O)[O-])c2)CC1 | 12.9%
O=C(COc1ccccc1)N1CCc2ccccc2C1 | -5.2%
COc1ccc(C2CC(=O)C3=C(C2)Nc2ccccc2NC3c2ccc(OC(F)(F)F)cc2)cc1 (stereo not drawn) | 7.4%
O=C1Nc2ccc(S(=O)(=O)NNc3ccc([N+](=O)[O-])cc3)c3cccc1c23 | -0.4%
Cc1ccc(C2=NN(C(=N)SC3CC(=O)N(c4ccccc4F)C3=O)C(c3ccc(Br)cc3)C2)cc1 (stereo not drawn) | -12.6%
Cc1cc(OCC(=O)Nc2ccc3c(c2)OCO3)ccc1Br | -0.6%
COc1ccc(N2C(=O)CSC2c2ccccc2F)cc1 (stereo not drawn) | -12.8%
Cc1cc(NC(=O)c2ccc(Cl)c(Cl)c2)ccc1NC(=O)c1ccccc1 | 4.7%
CC(C)Oc1ccc(C(=O)N2CCC(Cc3ccccc3)CC2)cc1 | -7.7%
COc1ccccc1/C=N/N=C1/NC(=O)C(CC(=O)Nc2cccc(C)c2C)S1 (stereo not drawn) | 11.2%
CCOc1cc(C2C(C(=O)OCC3CCCO3)=C(C)NC3=C2C(=O)CCC3)cc([N+](=O)[O-])c1O (stereo not drawn) | -10.6%
CC/C(O)=C1/C(=O)CC(C)(C)CC1=Nc1ccncc1 | -11.1%
O=C(CSC1=NCCS1)OCN1C(=O)c2ccccc2C1=O | 6.9%
O=C(NCCCN1CCOCC1)c1cc([N+](=O)[O-])cc([N+](=O)[O-])c1 | -1.7%
CCN(CC)c1ccc(C=C(C#N)C#N)c(OC)c1 | 91.5%
CC(C)OC(=O)C(C)Nc1n[nH]c(=S)[nH]c1=O (stereo not drawn) | 11.6%
Cc1cccc(CC2CC(=O)N(c3ccc4ccccc4n3)C2=O)c1 (stereo not drawn) | 9%

SMILES | displacement
COc1cccc(OCCCOc2ccc(C)c(C)c2)c1 | 0.1%
O=C1c2ccccc2C(=O)N1Cc1nc2ccccc2c(=O)n1Cc1ccccc1 | -0.4%
COc1ccc(/C=C(/C#N)C(=O)Nc2ccccc2)cc1 | -3.5%
O=C(NCc1ccc(Cl)cc1Cl)C(=O)NC1CCCC1 | 10.8%
CCOC(=O)c1c(NC(=O)c2ccc(Br)cc2)sc(C(=O)N(CC)CC)c1C | -0.9%
O=C(C(c1ccccc1)c1ccccc1)N1CCN(C2CC3CCC2C3)CC1 (stereo not drawn) | -2.6%
Cc1ccc(S(=O)(=O)c2cc(NS(=O)(=O)c3ccc(Cl)cc3)c3ccccc3c2O)cc1 | 4.7%
COc1cc(C=C2C(=O)c3ccccc3C2=O)cc(Br)c1OCC(=O)O | -0.2%
COc1ccc(N2C(=O)NC(=O)/C(=C/c3ccc(OCCOc4ccccc4)cc3)C2=O)cc1 | -23.2%
Cc1ccc2nc(-c3ccc(N4C(=O)C5C6c7ccccc7C(c7ccccc76)C5C4=O)cc3)sc2c1 (stereo not drawn) | -2.1%
COc1cccc(/C=N/Nc2cc(N3CCOCC3)ncn2)c1O | -9%
CC(=O)NC(=O)c1ccccc1OCc1ccc([N+](=O)[O-])cc1 | 2.3%
C/C(=N\N1CCN(Cc2ccc(C)cc2)CC1)c1ccccc1O | 14.3%
Cc1ccc(S(=O)(=O)n2cnc3cc([N+](=O)[O-])ccc32)cc1C | 10%
Cc1cccc(-n2c(C)cc(/C=N/NC(=O)CN3CCOCC3)c2C)c1 | -27.1%
COc1c(Cl)cc(/C=C2/SC(=S)NC2=O)cc1Cl | -19%
O=C(Nc1nc(-c2ccccc2)cs1)C1CC2CCC1C2 (stereo not drawn) | -16.1%
O=C(N/N=C/c1cc([N+](=O)[O-])ccc1O)c1cccc(N2CCCC2=O)c1 | 0%
CCOC(=O)c1c(/N=C/c2c(O)c([N+](=O)[O-])cc3oc4c(c23)CCCC4)sc(C)c1C | 5.9%
Cc1cc(NC(=O)c2ccc(-c3ccc([N+](=O)[O-])cc3C)o2)ccc1NC(=O)c1ccco1 | -1.5%
Cc1ccc(OCC(O)Cn2c3ccccc3c3ccccc32)cc1 (stereo not drawn) | -10.4%
O=C(NN1C(=O)CSC1=S)c1ccncc1 | -31.9%

SMILES | displacement
Cc1ccc(OCC(=O)N=Nc2c(O)[nH]c3ccc(Br)cc23)cc1 | 11.7%
COc1cc(/C=C(\C#N)C(=O)NCc2ccco2)c(Br)c(Br)c1O | -112%
O=C(CSC1CC(=O)N(c2ccc(C(=O)O)cc2)C1=O)Nc1ccc(Cl)cc1 (stereo not drawn) | 9.1%
O=C(c1cccs1)N1CCN(Cc2ccccc2F)CC1 | 1.2%
O=C1CC(c2cc3c(cc2Cl)OCO3)c2cc(Br)c3ccccc3c2N1 (stereo not drawn) | -5.8%
O=C(c1ccco1)N1CCN(S(=O)(=O)c2ccccc2)CC1 | -2.1%
CC(C)C(=O)Nc1ccc(-c2nc3cc(Cl)cc(Cl)c3o2)cc1 | 4.4%
COc1ccccc1OCCNC(=O)c1ccc(Oc2ccccc2)cc1 | -3.9%
O=C(O)c1ccc(-n2c(=O)c3ccccc3c3ccccc3c2=O)cc1 | -1.2%
Cc1ccc(-c2nc3cc(Cl)ccc3o2)cc1NC(=S)NC(=O)c1ccco1 | 16.3%
COc1ccc2c(c1)nc(SCC(O)c1ccccc1)n2C (stereo not drawn) | -4%
Cc1cc(-c2ccc(C)o2)c(C#N)c(SCC(=O)c2ccccc2)n1 | 40.5%
CC(=O)c1cccc(NC(=O)c2ccc3ccccc3c2)c1 | 30.2%
c1ccc(C23CN4CCN(CC(C4)C2=N/N=C2\C4CN5CCN(C4)CC2(c2ccccc2)C5)C3)cc1 | -1.7%
COc1ccc(Br)cc1/C=C/C(=O)Nc1ccc(N2CCOCC2)cc1 | 8.5%
COc1ccc(C(=O)Nc2cc(Cl)ccc2Cl)cc1NC(=O)c1ccccc1C | 2.9%
CC(C)CNC(=O)CC(c1ccccc1)c1c(O)ccc2ccccc12 (stereo not drawn) | 4.2%
COc1cc(NC(=O)c2ccccc2Cl)cc(OC)c1 | 0.9%
CCc1nnc(NC(=O)CN2CCN(c3ccc([N+](=O)[O-])cc3)CC2)s1 | 6.3%
O=C1c2ccccc2C(=O)N1N1C(=O)c2ccc(-c3nc4ccccc4o3)cc2C1=O | 1.5%
CC1CCN(c2cc(N3CCN(C(=O)c4ccc(F)cc4F)CC3)c([N+](=O)[O-])cc2F)CC1 | -2.9%
COc1ccc(C2SCC(=O)N2CCN2CCCCC2)cc1 (stereo not drawn) | 5.9%

SMILES | displacement
CCOc1ccc(NC(=O)COc2ccccc2)c([N+](=O)[O-])c1 | 10.7%
CCc1ccc(N2C(=O)NC(=O)/C(=C\c3ccc(Oc4ccc([N+](=O)[O-])cn4)cc3)C2=O)cc1 | 7.3%
COc1ccccc1OCCNC(=O)Nc1cc(F)c(F)cc1Cl | -30.2%
COc1ccc(N(CC(=O)Nc2ccc(Cl)cc2)S(C)(=O)=O)c(OC)c1 | 3.4%
C=CCNc1nc(Nc2ccccc2)nc(Nc2ccccc2)n1 | -0.1%
CCOC(=O)c1cccc(-c2ccc(/C=C3\Sc4ccccc4C3=O)o2)c1 | -33.5%
O=C(Cc1ccccc1)N1N=C(c2cccnc2)CC1(O)C(F)(F)F (stereo not drawn) | 5.7%
CCOC(=O)c1sc(NC(=O)c2ccc(Cl)cc2Cl)nc1C | 17%
Cc1cc(F)c(F)cc1C(=O)n1nnc2ccccc21 | 1.8%
O=C(Oc1ccc(-n2cnnn2)cc1)N1CCOCC1 | 0.2%
OCCNc1cc(-c2ccccc2)nc(-c2ccc(Br)cc2)n1 | 2.7%
CCc1c(C)nc2[nH]nc(-c3cccc(-c4n[nH]c5nc(C)c(CC)c(=O)n45)n3)n2c1=O | -5.9%
COc1ccc2ccccc2c1/C=C1/C(=O)NC(=O)N(c2cccc(Br)c2)C1=O | 11.3%
Cc1ccc(NC(=O)CCC(=O)n2nc(C)cc2C)c(C)c1 | -6.3%
O=C(/C=C/c1ccccc1)Nc1ccc(S(=O)(=O)Nc2ccc(F)cc2)cc1 | -4.3%
COc1ccccc1NC(=O)/C(=C\c1cccs1)NC(=O)c1ccc(C(C)(C)C)cc1 | 8.8%
CC(C)c1ccccc1NC(=O)C1CC1 | 4.7%
COc1ccccc1NCC(O)Cn1c2ccccc2c2ccccc21 (stereo not drawn) | 0.3%
COc1ccccc1CC(=O)Nc1ccc(Br)cc1 | 5.8%
Cc1ccc2cccc(SCc3ccc([N+](=O)[O-])cc3)c2n1 | -9.5%
